# Data as given in US10363239B2, “Method for inhibiting growth of cancer cells” (Pain Therapeutics, Inc., priority 2013, dated 2019).
# System: BxPC3 pancreatic cancer cell implants
# Assay: Xenograft tumor size study
# Details: oral gavage twice daily at 1 and 10 mg/kg
structure (smiles),measurement,value
CN1CCC2(CC1)NCC(=O)N2Cc1ccccc1 [Compound C0105],Tumor size change from baseline,shrank tumors from their original baselines
